Measured values reported in the supplement of paper PMC4604168 (melanoma cell lines).
The other results are listed elsewhere or left out. Repeats are few or missing, and single values can be far off.

What was measured:
Assay in all cases: cell count relative to DMSO control; melanoma cells; higher = more viable cells
Conditions in all cases: library dose: low library concentration; 72 h
WM115 = system: WM115
WM1716 = system: WM1716
WM1745 = system: WM1745
WM3526 = system: WM3526
WM3619 = system: WM3619
WM451Lu = system: WM451Lu
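Also: cell number obtained by counting DAPI-stained nuclei in high-throughput microscope images with image analysis software, screen run in 1,536-well plates.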

SMILES	cell count (WM115) [%]	cell count (WM1716) [%]	cell count (WM1745) [%]	cell count (WM3526) [%]	cell count (WM3619) [%]	cell count (WM451Lu) [%]
COCC[n+]1c2c(n(Cc3cnccn3)c1C)C(=O)c1ccccc1C2=O + C[C@]1(c2nc3c(C(N)=O)cccc3[nH]2)CCCN1 [Veliparib] (first compound 0.0004 µM, partner dose 1.4 µM)	83.6	75.9	82.6	93.3	84.6	72.4
OCc1c[nH]c2ccccc12 [Indole-3-carbinol] + N#Cc1c(O)c2c(-c3ccc(-c4ccccc4O)cc3)csc2[nH]c1=O [A769662] (first compound 0.8 µM, partner dose 2 µM)	116	101	113	98	106	107
Cn1c(Nc2ccc(C(F)(F)F)cc2)nc2cc(Oc3ccnc(-c4ncc(C(F)(F)F)[nH]4)c3)ccc21 + O=C(O)C(=O)Nc1sc2c(c1C(=O)O)CCNC2 [TCS401] (first compound 0.08 µM, partner dose 1.66667 µM)	57.1	69	74.6	59.7	80.7	117
Clc1ccc(Nc2nnc(Cc3ccncc3)c3ccccc23)cc1 [vatalanib] + O=C1NC(=O)/C(=C/c2ccc(-c3ccc(F)cc3O)o2)S1 [AS252424] (first compound 2 µM, partner dose 1 µM)	87.1	91	84.4	95.4	83.3	100
C#Cc1cccc(Nc2ncnc3cc(OCCOC)c(OCCOC)cc23)c1 [erlotinib] + c1cc(-c2cnn3cc(-c4ccc(OCCN5CCCCC5)cc4)cnc23)ccn1 [Dorsomorphin] (first compound 0.8 µM, partner dose 0.4 µM)	91.5	94	79	87.9	90.9	104
Nc1cccc2c1CN(C1CCC(=O)NC1=O)C2=O (stereo not drawn) [lenalidomide] + COc1cc(Nc2ncc(F)c(Nc3ccc4c(n3)NC(=O)C(C)(C)O4)n2)cc(OC)c1OC [Tamatinib] (first compound 1 µM, partner dose 0.4 µM)	85	77.1	58.4	102	106	137
COCC[n+]1c2c(n(Cc3cnccn3)c1C)C(=O)c1ccccc1C2=O + CN(NC(=O)CC(=O)NN(C)C(=S)c1ccccc1)C(=S)c1ccccc1 [STA4783] (first compound 0.0004 µM, partner dose 0.006 µM)	67.9	54.2	23.7	80.7	28.3	70.7
COCC[n+]1c2c(n(Cc3cnccn3)c1C)C(=O)c1ccccc1C2=O + Cc1cc([N+](=O)[O-])ccc1NS(=O)(=O)c1cc(Cl)ccc1Cl [FH535] (first compound 0.0004 µM, partner dose 1 µM)	69.5	92.5	93.8	89	101	89.3
Cn1c(Nc2ccc(C(F)(F)F)cc2)nc2cc(Oc3ccnc(-c4ncc(C(F)(F)F)[nH]4)c3)ccc21 + COc1ccc(COc2ccc(Cc3cnc(N)nc3N)cc2OC)cc1 [GW2580] (first compound 0.08 µM, partner dose 1 µM)	67.8	75	79.9	54.5	69.4	88.4
OCc1c[nH]c2ccccc12 [Indole-3-carbinol] + O=C1NC(=O)/C(=C/c2ccc(-c3ccc(F)cc3O)o2)S1 [AS252424] (first compound 0.8 µM, partner dose 1 µM)	94.5	91.8	92.2	96	99.4	105
OCc1c[nH]c2ccccc12 [Indole-3-carbinol] + Cn1c(Nc2ccc(C(F)(F)F)cc2)nc2cc(Oc3ccnc(-c4ncc(C(F)(F)F)[nH]4)c3)ccc21 [CHIR265] (first compound 0.8 µM, partner dose 0.08 µM)	71.8	80.9	71.9	71	50.4	89.7
Nc1cccc2c1CN(C1CCC(=O)NC1=O)C2=O (stereo not drawn) [lenalidomide] + C=CCn1c(=O)c2cnc(Nc3ccc(N4CCN(C)CC4)cc3)nc2n1-c1cccc(C(C)(C)O)n1 [MK1775] (first compound 1 µM, partner dose 0.02 µM)	83.6	82.4	65.6	105	108	71.8
OCc1c[nH]c2ccccc12 [Indole-3-carbinol] + COc1ccc(Cl)c(Nc2nc3ccccc3nc2NS(=O)(=O)c2cccc(NC(=O)C(C)(C)N)c2)c1 [XL147] (first compound 0.8 µM, partner dose 0.8 µM)	97.3	91	115	105	116	96.3
COCC[n+]1c2c(n(Cc3cnccn3)c1C)C(=O)c1ccccc1C2=O + NC(=O)Nc1cc(-c2cccc(F)c2)sc1C(=O)N[C@H]1CCCNC1 [AZD7762] (first compound 0.0004 µM, partner dose 0.02 µM)	95.7	106	104	81.9	58.6	60.8
O=C(CCCCCCC(=O)Nc1ccccc1)NO [vorinostat] + CC(C)(C)c1cnc(CSc2cnc(NC(=O)C3CCNCC3)s2)o1 [SNS-032] (first compound 0.08 µM, partner dose 0.01 µM)	109	120	124	89.5	115	100
Cn1c(Nc2ccc(C(F)(F)F)cc2)nc2cc(Oc3ccnc(-c4ncc(C(F)(F)F)[nH]4)c3)ccc21 + CCc1ccc(CCOc2ccc(CC3SC(=O)NC3=O)cc2)nc1 [pioglitazone] (first compound 0.08 µM, partner dose 2 µM)	60.9	78.3	65.8	65.5	81.1	103
C#Cc1cccc(Nc2ncnc3cc(OCCOC)c(OCCOC)cc23)c1 [erlotinib] + CCc1ccc(CCOc2ccc(CC3SC(=O)NC3=O)cc2)nc1 [pioglitazone] (first compound 0.8 µM, partner dose 2 µM)	108	94.8	70.4	84.8	74.8	114
Clc1ccc(Nc2nnc(Cc3ccncc3)c3ccccc23)cc1 [vatalanib] + COc1ccc(COc2ccc(Cc3cnc(N)nc3N)cc2OC)cc1 [GW2580] (first compound 2 µM, partner dose 1 µM)	96.9	93.6	81.3	94.7	109	114
OCc1c[nH]c2ccccc12 [Indole-3-carbinol] + CCc1ccc(CCOc2ccc(CC3SC(=O)NC3=O)cc2)nc1 [pioglitazone] (first compound 0.8 µM, partner dose 2 µM)	96.8	88.6	96.2	108	102	83.9
COCC[n+]1c2c(n(Cc3cnccn3)c1C)C(=O)c1ccccc1C2=O + COc1cc2ncnc(Nc3ccc(Oc4ccccc4)cc3)c2cc1OC [SrcI1] (first compound 0.0004 µM, partner dose 2 µM)	102	105	87	117	108	70.5
C#Cc1cccc(Nc2ncnc3cc(OCCOC)c(OCCOC)cc23)c1 [erlotinib] + O=S(=O)(c1ccccc1)N(CC(F)(F)F)c1ccc(C(O)(C(F)(F)F)C(F)(F)F)cc1 [T0901317] (first compound 0.8 µM, partner dose 1.4 µM)	85.5	81	63.1	88.7	125	92.8
C#Cc1cccc(Nc2ncnc3cc(OCCOC)c(OCCOC)cc23)c1 [erlotinib] + COc1ccc2c(c1)CCC1C2CCC2(C)C(NCCCCCCN3C(=O)C=CC3=O)CCC12 [U73122] (first compound 0.8 µM, partner dose 0.4 µM)	101	72.8	84.8	102	96.9	108
COCC[n+]1c2c(n(Cc3cnccn3)c1C)C(=O)c1ccccc1C2=O + O=C(CCCCCCC(=O)Nc1ccccc1)NO [vorinostat] (first compound 0.0004 µM, partner dose 0.08 µM)	96.2	104	97.1	103	106	66.3
Cn1c(Nc2ccc(C(F)(F)F)cc2)nc2cc(Oc3ccnc(-c4ncc(C(F)(F)F)[nH]4)c3)ccc21 + Cc1cc(N2CCOCC2)cc2[nH]c(-c3c(NC[C@@H](O)c4cccc(Cl)c4)cc[nH]c3=O)nc12 [BMS536924] (first compound 0.08 µM, partner dose 0.2 µM)	56.3	87.1	58.1	41.9	67.9	76.7
COCC[n+]1c2c(n(Cc3cnccn3)c1C)C(=O)c1ccccc1C2=O + COc1ccc2c(c1)CCC1C2CCC2(C)C(NCCCCCCN3C(=O)C=CC3=O)CCC12 [U73122] (first compound 0.0004 µM, partner dose 0.4 µM)	113	79.7	109	99.4	117	85.7
O=C(CCCCCCC(=O)Nc1ccccc1)NO [vorinostat] + Cn1cc(/C=C2\C(=O)Nc3cccnc32)c2ccccc21 [GW441756] (first compound 0.08 µM, partner dose 0.4 µM)	107	137	103	97.8	96.3	104
OCc1c[nH]c2ccccc12 [Indole-3-carbinol] + C#Cc1cccc(Nc2ncnc3cc(OCCOC)c(OCCOC)cc23)c1 [erlotinib] (first compound 0.8 µM, partner dose 0.8 µM)	89.3	85.7	84.9	89.1	105	98.2
OCc1c[nH]c2ccccc12 [Indole-3-carbinol] + C[C@]1(c2nc3c(C(N)=O)cccc3[nH]2)CCCN1 [Veliparib] (first compound 0.8 µM, partner dose 1.4 µM)	93	84.5	85.3	118	73.9	92.7
